Measurements published in the supplement of paper PMC8277577.

Target: SARS-CoV-2 Wuhan-Hu-1 spike receptor-binding domain
Experiment: ELISA binding EC50; higher = weaker binding; ELISA of recombinant human antibody on coated antigen, from 10 µg/ml in fourfold dilutions; four-parameter fit.

Row | Binder | ELISA binding EC50
1 | C987 (protein) chain 1: QVQLQESGPGLVKPSETLSLTCNVSGDIINKYYWSWIRQSPGKGLEWIGYIYYSGTTYYNPSLKSRVTMSVGTSKQQFSLRLTSVTAADTAVYYCARMLSTEWSFNWFDPWGPGTLVTVSS chain 2: SYELTQPPSVSVSPGQAASITCSGDKLGDKFACWYQQKPGQSPVLVIYQNDKRPTGIPERFSGSNSGNTATLTISGTQAMDEADYFCQAWDSTSASVFGTGTKVTVL | 3.11 ng/mL
2 | C843 (protein) chain 1: QVQLVESGGGVVQPGRSLRLSCAASGFTFSRYAMHWVRQAPGKGLEWVAVISYDGSNKYYATSLKGRCTISRDNSKNTLYLQMNSLRAEDTAVYFCAKQIGEYCSGGNCYQGSLDYWGQGTLVTVSS chain 2: DIQMTQSPSSLSASVGDRVTITCQASQDISNYLNWYQQKPGKAPKLLIYDASDLETGVPSTFSGSGSGTDFTLTISSLQPEDFATYYCQQYDIVPFTFGPGTKVDIK | 1.34 ng/mL
3 | C990 (protein) chain 1: EVQLVESGGGLVRPGGSLRLSCAASGFTVGSNFMSWVRQAPGKGLEWVSLIYSGGGTHYAESVKGRFTISRDKSKNTLYLQMNSLRAEDTAVYYCANQGYYYYMDVWGKGTTVTVS chain 2: QSALTQPASVSGSPGQSITISCTGTSSDVGAYNYVSWHQHHPGKAPKLIIYDVSNRPSGVSNRFSGSKSGNTASLTISGLQAEDEADYYCTSYTNTTTPWVFGGGTKLTVL | 1.85 ng/mL
4 | C996 (protein) chain 1: EVQLVESGGGLVQPGGSLRLSCVASGFTSTNYDMHWVRQAPGRGLQWVSSIGTAGDTYYPGSVRGRFTISRENAKNSLDLQMNSLRVGDTAVYYCARGQRGYYDRSGYYWGWRAFDIWGQGTMVTVSS chain 2: SYELTQPPSVSVAPGQTARITCGGNNIGNKSVYWYQQKPGQAPVLVVYDDSGRPSGIPERFSGSNSANTATLTISRVEAGDEADYYCQVWDNNSDQFGGGTKLTVL | 3.07 ng/mL
5 | C995 (protein) chain 1: EVQLVESGGGLIQPGRSLRLSCTASGFSVGDYAMSWFRQAPGKGLEWVGFLRNQHYGGTAEYAASVKGRFSISTDASKNIVYLQMDSLKTEDTAVYYCARNDRYIVIVPAEMLYWGQGTLVTVSS chain 2: EIVMTQSPATLSVSPGERATLSCRATESVYSNLAWYQQKPGQAPRLLMYDASTRAPGIPARFSGSGSGTEFTLTISSLQSEDFATYYCQQYSNWPPITFGQGTRLEIK | 3.79 ng/mL
6 | C1000 (protein) chain 1: QVQLQESGPGLVKPSQTLSLSCTVSGGSISSDDYYWSWIRQPPGKGLEWIGYIYYSGSTYYNSSLKSRVSISVDTSKNQFSLKLSSVTAADTAVYYCARWKRWLQFLYFDYWGQGTLVTVSS chain 2: QSALTQPRSVSGSPGQSVTISCTGTSSDVGGYSFVSWYQQHPGKAPKVLIYDVDKRPSGVPDRLSGSKSGNTASLTISGLQAEDEADYYCCSYAGSYTLIFGGGTKLTVL | 3.2 ng/mL
7 | C997 (protein) chain 1: EVQLLESGGGLVQPGGSLRLSCAASGFTFSKDAMSWVRQAPGKGLEWVSTVTGSGTNTYYADSVKGRFTISRDNSNNTLYLQMNSLRAEDTAVYYCANHPLGAAEGYYYYYMDVWGKGTTVTVSS chain 2: EIVLTQSPGTLSLSPGERGTLSCRASQRVPSSQLAWYQQKSGQAPRLLIYGASSRASGIPDRFSGSGSGTDFTLNISRLEPEDFAVYYCQQYGSLRALTFGGGTKVEIK | 3.49 ng/mL
8 | C986 (protein) chain 1: EVQLVQSGAEVKKPGETLKISCKGSGDSFSNYWIGWVRQSPGKGLEWMAIVYPGDSDARYSPSFQGQVTISADKSVTTAYLKWSSLKASDTAIYYCVRGLPVDWYFDLWGRGTLVTVSS chain 2: QSVLTQPPSVSGAPEQRVTISCTGSSSNIGAGHDVHWYQQLPGTAPKLLIYNNNNRPSGVPDRFSGSKSGASASLAISGLQAEDEAEYYCQSYDKSLSVLYVLGTGTKVTV | 3.36 ng/mL
9 | C994 (protein) chain 1: QVQLQESGPGLVKPSGTLSLTCAVSGVSISNTNWWNWVRQPPGKGLEWIGEIYHTGSARYNPSLRSRVTISVDKSKNQFSLRLNSATAADTAIYYCARAQTPEFGELLYWGQGALVTVSS chain 2: DIQMTQSPSSLSASVGDRVTITCRASQSITDHLNWYQQKPGKAPKLLIYAASSLQTGVPSRFSGSGSETDFTLTISTLQPEDFATYYCQQSYGPPTYSFGQGTKLEIK | 2.09 ng/mL
10 | C984 (protein) chain 1: QVQLVQSGTEVKKPGDSVQVSCKTSGYSFTGYYIHWVRQAPGQGLEWMGRINPNSGGTNYAQKFQGRVIMTRDTSITTAFMELTRLRYDDTAVYFCAREPIEGVIGGMIVNYYYMDVWGRGTTVTVSS chain 2: QSALTQPASVSGSPGQSITISCTGTSSDVGGYYYVSWYQQHPGKAPKLMIYDVSSRPSGVSNRFSGSKSGNTASLTISGLQAEDEADYYCSSYTSSNTLVVFGGGTKLTVL | 2.76 ng/mL
11 | C985 (protein) chain 1: QVQLVQSGAEVKKPGASVKVSCKASGYIFTGYYMHWVRQAPGQGLEWMGRINPNSGGSRYAEKFQGRVTMTRDTSIITAFMELRGLKSDDTAVYYCAREPIEAVPAGIIVNYYYMDVWGNGTTVTVSS chain 2: QSALTQPASVSGSPGQSITISCTGTSSDVGGYNYVSWYQQHPGKAPKLMIYDVTSRPSGVSDRFSGSKSGTTASLTISGLQAEDEADYYCSSFTSAFTLVVFGGGTKLTVL | 3.67 ng/mL
12 | C1001 (protein) chain 1: QVQLQESGPGLVKPSQTLSLTCTVSGGSISSGDYYWTWIRQPPGKGLEWIGYIFYSGITYYSPSLKSRLTMSIDTSKSQFSLNLSSVTAADTAVYYCARWKRLLQSLHFDYWGQGILVTVSS chain 2: QSALTQPRSVSGSPGQSVTISCTGTSSDVGSYDYVSWYQQHPGKAPKVMIYGVDERPSGVPHRFSGSKSGNTASLTISGLQADDEADYFCCFYAGSYTLLFGGGTKVTVL | 3.23 ng/mL
13 | C993 (protein) chain 1: EVQLLESGGGLVQPGGSLRLSCAASGFPFSIYAMSWVRQAPGKGLEWVSGMRGTTGTTYYADSVKGRFAISRDNSKNMLHLQMNSLRAEDTAVYYCAKSDHGDYVIGAFDIWGQGTMVTVSS chain 2: QSALTQPPSASGSPGQSVTISCTGTSGDVGGYNYVSWYQQHPGKAPKLMIYEVSKRPSGVPDRFSGSKSGNTASLTVSGLQAEDEADYYCNSYAGSNNWVFGGGTKLTVL | 2.29 ng/mL
14 | C998 (protein) chain 1: QVQLVQSGAEVKKPGASVKVSCKTSGYTFISYYIHWVRQAPGQGLEWMGIINPDGDNTNYAQKFQGRVTMTRDTSTSTVYMELSSLRFEDTAVYYCARGGAIPALRTAFDIWGQGTMVTVSS chain 2: DIQMTQSPSTLSASVGDRVTITCRASQSISNWLAWYQQKPGKAPKLLIYKASSLESGVPSRFSGSGSGTEFTLTISSLQPDDFATYYCQEYNSYYFGQGTKLEIK | 2.51 ng/mL
15 | C999 (protein) chain 1: QVQLVQSGAEVRRPGASVKVSCKASGYTLTHYYIHWVRQAPGQGLEWVGIINPDGDNTNYAQKFQGRVTMTRDTSTSTVYMELSSLRSEDTAIFYCARGGAIPALRSAFDIWGQGTMVTVSS chain 2: DIQMTQSPSTLSASVGDRVTITCRASQSINNWLAWYQQKPGKAPKLLIYKASTLESGVPSRFSGSGSGTEFTLTISSLQPDDFATYYCQQYNSYFFGQGTKLEIK | 2.68 ng/mL
16 | C983 (protein) chain 1: QVQLVESGGGVVRPGRSLRLSCAASGFTFSKYGMHWVRQAPGKGLECVASIAYDGSDDSYADSVKGRFIISRDNSKNTLYLQMNSLRAADTAVYYCAKVLGSYCSASSCHGQRPDYWGQGTLVTVSS chain 2: DIQMTQSPSSLSAYVGDRVTITCQASQDISNHLNWYQQKPGKAPNLLIYDASNLETGVPSRFSGSGSGTDFSFTISSLQPEDIATYYCQQYDNVPPWTFGQGTKVEIK | 2.11 ng/mL
17 | C982 (protein) chain 1: EVQLVESGGGLVQPGGSLRLSCAASGFTFSNYDMHWVRQPTGGGLEWVSAIGTAGDTYYLASVKGRFTISRENAKNSLSLQMNSLRAGDTAVYYCVRGDTLVQGVIKAYYYYFMDVWGQGITVTVSS chain 2: DIQMTQSPSSLSASVGDRVTITCRASQNISRYLNWYQQKPGKAPRLLIYAASTLQSGVPSRFSASGSGTDFTLTITNLQPEDFAVYYCQQTYVMPPYTLAQGTKLEIK | 2.56 ng/mL
18 | C991 (protein) chain 1: QVQLQESGPGLVKPSQTLSLTCTVSGGSISSGGYFWSWIRQHPGKGLEWLGYNYYTGTPHYNPSLKSRLVISIDTSKNQFSLKLSSVTAADTAVYYCARGDTFGRGYYFDYWGQGTLVTVSS chain 2: SYELTQPPSVSVAPGQTARITCGGNNIGSKSVHWYQQKPGQAPVMVVYDDSDRPSGIPERFSGSNSGDTATLTISRVEAGDEADYSCQVWDRSSDHPWVFGGGTKLTVL | 3.46 ng/mL
19 | C992 (protein) chain 1: QVQLQESGPGLVKPSQTLSLTCTVSGGSISNGGYFWTWIRQHPVKGLEWIGYIYYSGSPHYNPSLKSRLSISLDTFKNQFSLNLSSVTAADTAVYYCARGDTFGRGYYFDFWGQGTLVTVSS chain 2: SYELTQPPSVSVAPGQTARITCGGNNIGTNSMHWYQQKPGQAPVLVVFDDSDRPSGIPERFSGSNSGNTATLTISRVEAGDEADYHCQVWDRSSDRPWVFGGGTKLTVL | 3.24 ng/mL

Recombinant human monoclonal antibodies (heavy:light variable regions). ELISA EC50 on the named antigen, from 10 µg/ml down; lower = stronger. No active / inactive call.
